Test results taken from PubChem BioAssay AID1645887 (National Center for Advancing Translational Sciences (NCATS), 2021).
Several values for one entry are separate records, joined by “and”; a condition that tells them apart may be missing. Equal values may be shown once. About 40 (0.2%) of roughly 16,000 compounds were called active. Inconclusive results (about 1%) are left out. Calls follow the shape of the dose curve; as a rule, active = well fitted activation curve with a large enough effect; inconclusive = small, poorly fitted or top-dose-only effect, or another doubt; inactive = no such curve, though single readings can be large or run the other way. The list shows a part of the results.

target: Rap guanine nucleotide exchange factor 4 (Homo sapiens) (UniProt Q8WZA2); experiment: Validation qHTS for agonist of cAMP-regulated guanine nucleotide exchange factor 4 (EPAC2); details: EPAC2 Rap1B BODIPY-GDP exchange, fluorescence; activation: stronger effect = higher value;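 also: exchange makes BODIPY-GDP fluorescence drop when released from Rap1B; series mostly up to about 150 µM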
UniProt Q8WZA2, sequence (Q8WZA2 whole entry, looked up): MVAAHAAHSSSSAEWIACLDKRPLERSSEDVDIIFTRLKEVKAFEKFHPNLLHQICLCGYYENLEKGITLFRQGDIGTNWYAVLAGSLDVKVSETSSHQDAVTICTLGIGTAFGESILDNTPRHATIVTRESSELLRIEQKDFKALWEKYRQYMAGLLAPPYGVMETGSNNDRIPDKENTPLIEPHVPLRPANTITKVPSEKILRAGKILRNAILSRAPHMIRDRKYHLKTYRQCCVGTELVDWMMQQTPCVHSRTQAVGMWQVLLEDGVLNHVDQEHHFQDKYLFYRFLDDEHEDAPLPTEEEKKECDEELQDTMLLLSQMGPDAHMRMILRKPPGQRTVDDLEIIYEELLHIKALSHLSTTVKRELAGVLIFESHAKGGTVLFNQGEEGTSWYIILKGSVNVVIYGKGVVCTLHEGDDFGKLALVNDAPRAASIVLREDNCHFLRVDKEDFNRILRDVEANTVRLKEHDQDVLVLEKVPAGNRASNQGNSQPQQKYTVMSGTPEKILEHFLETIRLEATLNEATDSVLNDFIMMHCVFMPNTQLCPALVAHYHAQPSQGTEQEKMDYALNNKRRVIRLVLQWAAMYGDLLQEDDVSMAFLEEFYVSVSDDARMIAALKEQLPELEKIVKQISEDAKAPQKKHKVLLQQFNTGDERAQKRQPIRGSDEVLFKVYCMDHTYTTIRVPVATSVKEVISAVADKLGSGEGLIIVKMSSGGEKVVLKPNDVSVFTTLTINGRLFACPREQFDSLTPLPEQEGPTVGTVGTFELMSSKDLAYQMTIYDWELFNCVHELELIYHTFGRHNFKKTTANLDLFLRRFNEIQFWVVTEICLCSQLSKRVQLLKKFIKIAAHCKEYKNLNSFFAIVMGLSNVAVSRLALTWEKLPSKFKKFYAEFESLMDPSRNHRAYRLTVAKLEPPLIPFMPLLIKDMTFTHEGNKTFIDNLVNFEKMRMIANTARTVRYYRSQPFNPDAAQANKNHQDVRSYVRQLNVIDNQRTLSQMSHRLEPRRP
Summary of the method: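 Signal normalized against 6.5 mM cAMP as agonist control. Mix of EPAC2 (100 nM), RAP1B-BODIPY-GDP (250 nM) and GDP (50 uM) was read kinetically at 480/540 nm, every 5 min over 30 min, after 5 min room-temperature incubation with compound.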
% is scaled to controls: 0 for no effect and ±100 for the full control effect.

activation, inactive:
CCC1C(=O)NCCN1Cc1ccc2c(c1)CN(Cc1cc(OC)ccc1OC)CCO2 (stereo unspecified) -8.54%, COC(=O)C1=C(C)NC(C)=C(C(=O)OCC(C)C)C1c1ccccc1[N+](=O)[O-] (stereo unspecified) -30.9%, CC1(C)CCC(C)(C)c2cc(C(=O)Nc3ccc(C(=O)O)cc3)ccc21 -16.2%, N[C@H](CCC(=O)NCC(=O)O)C(=O)O 1.75%, O=C(c1csnn1)N1CCC[C@@]2(CCN(c3ncccn3)C2)C1 -8.33%, CCCN=C(N)NCCC[C@H](N)C(=O)O -9.59%, CCCCN(CCC(=O)O)c1ccc(/C=C/c2ccnc3ccccc23)cc1 -31.5%, O=C(c1ccco1)N1CCC[C@@]2(CCN(Cc3nccs3)C2)C1 -9.87%, O=S(=O)(O)c1ccc2c(N=Nc3ccc(S(=O)(=O)O)c4ccccc34)c(O)c(S(=O)(=O)O)cc2c1 -30.9%, COc1cc2c(cc1O)C(Cc1ccc(O)cc1)[N+](C)(C)CC2 (stereo unspecified) -19.2%, Nc1c(Br)cc(C=O)cc1Br -7.44%, COc1cc(-c2cc(C)c3c(OC)ccc(OC)c3n2)cc2c1OCCN(C(=O)CCn1ccc(C)n1)C2 -3.01%, O=c1cc(-c2ccc(O)cc2)oc2cc(O)ccc12 -1.03%, N#Cc1ccccc1-c1nc(NCCN2CCOCC2)c2ccccc2n1 -4.27%, Cc1ccccc1CNc1ncnc2c1ncn2[C@@H]1O[C@H](CO)[C@@H](O)[C@H]1O -14.6%, O=C(c1cnccn1)N1CCC2(CCN(Cc3ccncc3)CC2)CC1 -3.01%, Cc1noc(C)c1C(=O)N1CCC2(CCCN(c3ccccc3)C2)CC1 9.1%, COC(=O)N1CCC[C@@]2(CCN(C(=O)Nc3cccc(C#N)c3)C2)C1 -7.87%, CCC(C)[C@H]1COCCS(=O)(=O)N1Cc1ccc(Br)cc1 (stereo partly specified) -22.4%, COC(=O)C1=C(C)NC(C)=C(C(=O)OCCN(C)Cc2ccccc2)C1c1cccc([N+](=O)[O-])c1 (stereo unspecified) 9.02% and -0.903% and -25.3%, COc1ccc(-n2c(CNC(=O)c3cccc4ccccc34)nnc2SC)cc1 8.88%, Oc1cc(-c2nc3ccccc3s2)cc2c1OCCN(Cc1cccn1-c1ncccn1)C2 -12.9%, CSc1nnc(CCNC(=O)c2ccc(-c3cccc(F)c3)cc2)n1-c1ccc(F)cc1 -19.2%, CCCCN1CC[C@H]2C=CC[C@@H](C(=O)NCc3cccnc3)[C@H]2C1=O -4.87%, COC(=O)[C@H]1[C@H]2C[C@@H]3c4[nH]c5cc(OC)ccc5c4CCN3C[C@H]2C[C@@H](OC(=O)/C=C/c2cc(OC)c(OC)c(OC)c2)[C@@H]1OC 3.06%, NCCCC[C@H](NC(=O)[C@@H]1CCCN1C(=O)[C@@H]1CSSC[C@H](N)C(=O)N[C@@H](Cc2ccc(O)cc2)C(=O)N[C@@H](Cc2ccccc2)C(=O)N[C@@H](CCC(N)=O)C(=O)N[C@@H](CC(N)=O)C(=O)N1)C(=O)NCC(N)=O -6.83% and -13.4%, N#Cc1cccc(-c2nccc(NCc3ccccc3)n2)c1 -10.9%, N#CCCn1c(=O)c(-c2ccc(F)cc2)nc2cnc(N3CCOCC3)nc21 -0.246%, CN(C)c1ccc(-c2nc(NCCN3CCOCC3)c3ccccc3n2)cc1 -14.7%, COc1ccccc1CNc1cc(-c2ccccc2OC)ncn1 -14.2%, CC(=O)N1CCN(C)CC1 -17.5% and 1.56%, CNc1c2c(nn1C)CCCC2 -5.43%, CC(C)=CCc1c2c(c3occ(-c4ccc(O)cc4)c(=O)c3c1O)C=CC(C)(C)O2 -62%, CN1CCN(c2c(F)cc3c(=O)c(C(=O)O)cn4c3c2SCC4)CC1 2.13%, Cn1cccc1C(=O)N1CCC2(CCCN(C(=O)Nc3ccccc3)C2)CC1 9.22%, OC1(c2ccc3c(c2)CN(Cc2ccco2)CCO3)CCN(c2ccccc2F)CC1 2.96%, CO[C@H]1[C@H](NC(=O)c2ccsc2)c2ccccc2C12CCN(Cc1cccc3ncccc13)CC2 -8.23%, O=C(c1csnn1)N1CCC2(CC1)CCN(c1ccccn1)CC2 -12.9%, CCCCC#Cc1nc(NC)c2ncn([C@@H]3O[C@@H](CO)[C@H](O)[C@H]3O)c2n1 -19.1%, COC(=O)C1=C(C)NC(C)=C([N+](=O)[O-])[C@@H]1c1ccccc1C(F)(F)F -23.5%, COc1ccccc1N1CCN(C[C@@H](O)COc2cccc3ccccc23)CC1 -11.9%, Cc1c(I)c(=O)n(-c2ccccc2)n1C 2.2%, Cc1cccc(CNc2ccnc(-c3ccccc3C(F)(F)F)n2)c1 -5.59%, Cc1ccccc1C(OCCN(C)C)c1ccccc1 (stereo unspecified) -5.66% and -9.12% and 17.7%, CCC1CN(CC(=O)NCc2cc(C)n(C)n2)Cc2cc(OC)ccc2O1 (stereo unspecified) -0.917%, O=C(c1cccc(F)c1)N1CCC2(CCN(Cc3ccncc3)CC2)CC1 6.8%, CC(C)C[C@H]1C(=O)N2CCC[C@H]2[C@]2(O)O[C@](NC(=O)[C@@H]3C=C4c5cccc6[nH]c(Br)c(c56)C[C@H]4N(C)C3)(C(C)C)C(=O)N12 20.7% and 0.158%, COc1ccc2[nH]cc(CCNc3cc(-c4ccc5c(c4)OCO5)ncn3)c2c1 -16.8%, NCCNS(=O)(=O)c1cccc2c(Cl)cccc12 -2.64% and -30.7%, COCCn1c(=O)c(CCc2ccccc2)nc2cnc(Nc3cccc(OC)c3)nc21 -1.34%, Cc1nc(CN2CCN(C(=O)CC3(c4ccccc4Cl)CC(=O)N(C)C3=O)CC2)cs1 (stereo unspecified) -3.26%, Nc1ncnc2c1ncn2[C@@H]1O[C@H](COP(=O)(O)CP(=O)(O)OP(=O)(O)O)[C@@H](O)[C@H]1O 5.3% and -13%, NC(=O)NC1NC(=O)NC1=O (stereo unspecified) 2.29% and 18.4%, COc1cc(Cl)c(C)cc1N1C(=O)[C@@H]2C[C@H]1CN2Cc1ccccn1 -6.77%, O=C1CCc2ccc(OCCCCN3CCN(c4cccc(Cl)c4Cl)CC3)cc2N1 -1.51%, COc1ccccc1C1CN(Cc2cccn2-c2ncccn2)Cc2ccccc2O1 (stereo unspecified) 7.51%, CCCCCCCCCCCCCCCC(=O)C(F)(F)F -23.6%, Cc1cnc(SCc2ccccn2)nc1C1CCCN(C(=O)c2ccc3c(c2)OCO3)C1 (stereo unspecified) 3.46%, CN(C)CCOC(c1ccc(Cl)cc1)c1ccccn1 (stereo unspecified) -17.1% and -0.718%, COc1ccc(NC(=O)N2CCC3(CC2)CCN(S(=O)(=O)c2ccccc2)CC3)cc1 5.15%, N#CCCn1c(=O)c(-c2ccccc2)nc2cnc(Oc3cccc(Cl)c3)nc21 -25.4%, COC(=O)N1CCC2(CCCN(C(=O)Nc3cccc(F)c3)C2)CC1 -1.68%, COc1c2ccoc2cc2oc(=O)ccc12 -7.38% and 0.068%, CNc1ncncc1-c1ccccc1OC -17.1%, COc1cc(-c2c(-c3ccc4c(c3)OCO4)noc2-c2ccsc2)ccc1F -21.3%, O=C(c1ccco1)N1CCC2(CC1)CN(c1ccccc1)C2 -7.02%, O=C(Nc1cccc(F)c1)N1CC2(CCN(C(=O)c3cc(C(F)(F)F)cc(C(F)(F)F)c3)CC2)C1 -10.5%, COC(=O)c1ccccc1-c1cc(C)cc2c1OC(CNC(=O)c1cc(C)on1)C2 (stereo unspecified) -6.95%, CC(C)(C)CC(C)(C)N=C1Nc2ccccc2NC12C[C@H]1CCC(=O)N3CC[C@@H](C2)[C@@H]13 (stereo partly specified) -40.2%, Cc1noc(C)c1C(=O)N1CCC2(CC1)CCN(c1ccccn1)CC2 -14%, NCCCC(N)(C(=O)O)C(F)F (stereo unspecified) -3.31% and -17.6%, O=C(NCC1Cc2cccc(-c3cnccn3)c2O1)c1ccc2c(c1)OCCO2 (stereo unspecified) -1.91%, Cc1c(C(=O)NCCN2CCOCC2)cnn1-c1nccc(-c2cc3ccccc3o2)n1 1.85%, COc1cccc(-c2ccnc(-n3ncc(C(=O)NCC4(N5CCCCC5)CCCC4)c3C)n2)c1 -6.78%, Cc1ccc2c(c1)CN(CCNC(=O)c1cc3ccccc3oc1=O)CC(C)O2 (stereo unspecified) -23.9%, CCCN1CCC(=O)N([C@H](CO)c2ccccc2)CC1 -37.7%, O=C(Nc1ccc([N+](=O)[O-])cc1)Nc1ccc([N+](=O)[O-])cc1 -1.58%, CCCCCCCCCCCC1=C(O)C(=O)C=C(O)C1=O -14.9% and -42.5% and -33.1%, CC(=O)Nc1ccc(OCCOCCOc2ccc(NC(C)=O)cc2)cc1 -26.4%, CC(C)NC(=O)N1CCCC2(CCN(C(=O)c3cccc(F)c3)CC2)C1 -15.3%, CC(=O)NCCNc1nc(-c2ccccc2Cl)nc2ccccc12 -18.6%
